Laboratory results taken from paper PMC6750928.
These are yes or no findings as the source states them, for the method shown. In cells and extracts the contact can be indirect. Some results given as binding are weak or reduced against the parent protein; the word gives no strength. For part of these data: Tags and fused reporters may be left off the sequences shown.

T1: Growth hormone releasing hormone (human), Q02643
T1 chain: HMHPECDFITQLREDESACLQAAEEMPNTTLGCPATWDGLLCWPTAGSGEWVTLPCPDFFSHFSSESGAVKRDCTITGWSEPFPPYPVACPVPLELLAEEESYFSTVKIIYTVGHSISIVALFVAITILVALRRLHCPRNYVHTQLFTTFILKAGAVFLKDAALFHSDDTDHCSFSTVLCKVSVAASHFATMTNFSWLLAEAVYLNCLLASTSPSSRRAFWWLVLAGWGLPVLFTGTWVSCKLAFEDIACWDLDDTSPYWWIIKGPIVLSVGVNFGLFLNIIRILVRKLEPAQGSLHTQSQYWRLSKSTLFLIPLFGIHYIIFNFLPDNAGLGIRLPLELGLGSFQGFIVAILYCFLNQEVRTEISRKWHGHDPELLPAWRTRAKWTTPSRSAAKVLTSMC

T2: Glucagon-like receptor 1 (human), P43220
T2 chain: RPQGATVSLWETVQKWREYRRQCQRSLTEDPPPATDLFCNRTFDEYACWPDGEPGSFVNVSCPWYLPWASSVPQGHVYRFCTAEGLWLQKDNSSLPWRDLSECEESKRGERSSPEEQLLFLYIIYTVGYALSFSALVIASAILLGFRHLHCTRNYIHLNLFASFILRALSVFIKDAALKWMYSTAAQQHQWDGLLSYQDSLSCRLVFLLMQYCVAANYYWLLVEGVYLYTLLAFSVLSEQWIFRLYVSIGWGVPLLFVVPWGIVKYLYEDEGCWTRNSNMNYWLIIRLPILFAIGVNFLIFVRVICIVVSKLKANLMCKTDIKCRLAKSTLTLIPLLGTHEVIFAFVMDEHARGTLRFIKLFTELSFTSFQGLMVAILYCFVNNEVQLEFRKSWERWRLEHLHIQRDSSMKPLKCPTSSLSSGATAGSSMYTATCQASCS


Legend:
[1] = target: T1, Growth hormone releasing hormone …; test: co-IP; multiplexed suspension bead array (SBA) immunoassay: clarified lysates (1% DM; 50 mM Hepes, 1 mM EDTA, 150 mM NaCl, 5 mM MgCl2, pH 7.4) of HEK293F cells cotransfected with tagged GPCR and RAMP, diluted to 50 ug/ml, incubated overnight at 4°C with bar-coded beads carrying anti-tag (HA, 1D4, FLAG, OLLAS), anti-GPCR or anti-RAMP Abs; the partner detected with a PE-conjugated anti-tag mAb; Luminex FlexMap 3D, MFI; details: remark: other sources report otherwise
[2] = target: T2, Glucagon-like receptor 1 (human), P43220; test: as above; details: remark: other sources report otherwise

Row | binding [1] | binding [2] | Binder
1 | no binding | binds | Receptor activity-modifying protein 1, O60894 27-148 (protein) CQEANYGALLRELCLTQFQVDMEAVGETLWCDWGRTIRSYRELADCTWHMAEKLGCFWPNAEVDRFFLAVHGRYFRSCPISGRAVRDPPGSILYPFIVVPITVTLLVTALVVWQSKRTEGIV
2 | – | binds | Receptor activity-modifying protein 2, O60895 43-175 (protein) QPLPTTGTPGSEGGTVKNYETAVQFCWNHYKDQMDPIEKDWCDWAMISRPYSTLRDCLEHFAELFDLGFPNPLAERIIFETHQIHFANCSLVQPTFSDPPEDVLLAMIIAPICLIPFLITLVVWRSKDSEAQA
